Measured values as given in the supplement of paper PMC12217912.
This is one part of the list. The full chains were built here from the parent and the listed change. Values near 0.05 are background.

B1: TEV protease; numbered along this chain (parent)
chain: MGESLFKGPRDYNPISSSICHLTNESDGHTTSLYGIGFGPFIITNKHLFRRNNGTLVVQSLHGVFKVKDTTTLQQHLVDGRDMIIIRMPKDFPPFPQKLKFREPQREERICLVTTNFQTKSMSSMVSDTSCTFPSGDGIFWKHWIQTKDGQCGSPLVSTRDGFIVGIHSASNFTNTNNYFTSVPKNFMELLTNQEAQQWVSGWRLNADSVLWGGHKVFMVKPEEPFQPVKEATQL

Variants of: B1
Assay: raw area under fraction-flipped curve 0-4 h after induction (AUC4h, not background-subtracted), DNA-recorder readout of cleavage of the substrate (dimensionless); higher = more cleavage of the substrate by the protease variant
Conditions: temperature: 34 °C; time window: 0-4 h after rhamnose induction
Protocol: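 In vivo DNA recorder in E. coli TOP10(DE3) ΔrhaA at 34 °C. Each TEVp single-site mutant (parent TEVp 0) is paired with a single-site variant of the 7-mer TEVs (canonical ENLYFQ|S). The substrate sits between flexible linkers in a Bxb1-sfGFP-TEVs-SsrA fusion, so cleavage stabilises Bxb1 and speeds flipping of a recombination array, read by NGS. The value is the raw area under the fraction-flipped curve over 0-4 h after rhamnose induction (AUC4h), with ≥20 reads per time point. It is not background-subtracted; inactive controls average about 0.047.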
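Note: Bxb1 expression induced with 0.2% (w/v) L-rhamnose at OD600 near 0.5, cultures sampled hourly, flipped fraction per protease–substrate barcode pair counted by paired-end Illumina sequencing.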

Variant	area with substrate ENLYDQS	area with substrate ENLYEQS	area with substrate ENLYGQS	area with substrate ENLYHQS	area with substrate ENLYIQS	area with substrate ENLYKQS	area with substrate ENLYLQS	area with substrate ENLYMQS	area with substrate ENLYNQS	area with substrate ENLYPQS	area with substrate ENLYRQS	area with substrate ENLYVQS	area with substrate ENLYYQS	area with substrate ENLYQQS	area with substrate ENLYSQS	area with substrate ENLYTQS	area with substrate ENLYWQS
P9M	0.0712	0.0706	0.0688	0.0775	0.0902	0.0663	0.0907	0.0864	0.0586	0.0891	0.0674	0.112	0.0742	–	–	–	–
I19L	0.0529	0.0717	0.0641	0.0751	–	0.0391	–	0.0761	0.0751	0.0838	–	–	0.0431	0.0641	0.0847	0.066	0.0945
G202M	0.0495	0.0535	0.067	0.054	–	0.0629	–	0.0548	0.0529	0.0696	0.0585	0.0924	0.0588	0.0547	0.0437	–	0.0679
L61D	0.056	0.0765	0.0751	–	0.132	0.053	0.0861	0.0873	0.0692	–	0.062	0.13	0.062	0.0606	0.0707	–	0.0903
G80R	0.0656	0.0594	0.0124	0.0777	0.138	0.0744	–	0.0693	0.0654	0.0683	0.0601	–	0.0709	–	0.0856	–	–
F95V	0.0598	0.0569	–	0.0619	–	0.0561	–	–	–	–	0.0718	0.103	0.0376	–	0.102	–	0.0651
A196M	0.0739	0.0718	0.0739	0.0757	0.126	0.124	0.0922	0.103	0.0777	–	0.0574	0.12	–	0.0536	0.08	0.0792	0.0724
L156I	0.0675	–	–	0.0577	0.143	0.0746	0.0368	0.0892	–	0.088	0.0985	0.11	0.0637	0.0668	–	–	0.0903
S124Q	0.0538	0.0727	0.0654	–	0.148	0.0607	0.0771	0.0673	0.0556	0.0739	–	–	0.0761	–	0.0808	–	0.0945
Y34I	0.0616	–	–	0.0356	0.108	0.0693	–	0.0664	–	–	–	0.092	0.0561	0.064	–	0.0832	–
S130N	0.0747	0.083	–	–	0.125	0.0558	–	–	0.0957	–	–	0.137	–	–	–	0.0525	0.15
H76A	0.061	0.0727	–	0.0602	–	0.0622	0.0688	–	0.0571	0.0799	0.0642	0.0775	–	0.0639	–	0.0605	0.0629
S130C	0.048	–	–	0.0846	–	0.0525	–	–	–	–	–	–	–	–	–	–	–
V67M	0.0559	0.0817	0.0401	0.0702	0.0943	0.0645	0.0811	0.0717	0.0446	0.0762	–	0.111	–	0.0552	0.0649	–	–
